Laboratory results as given in patent publication US20220411536A1 (NUMAB THERAPEUTICS, published 2022).

B1: PRO1680 (multispecific antibody)
chain: DIQMTQSPSSLSASVGDRVTITCQASQSINDYLAWYQQKPGKAPKLLIYKASTLASGVPSRFSGSGSGTDFTLTISSLQPEDFATYYCQAGYIITDIDNVFGTGTKVTVLGGGGGS[not shown - about 120 residues]GGGGSGGGGSGGGGSGGGGSIQMTQSPSSLSASVGDRVTITCRASQDVNTAVAWYQQKPGKAPKLLIYSASFLYSGVPSRFSGSRSGTDFTLTISSLQPEDFATYYCQQHYTTPPTFGCGTKLTVLGGGGGSQVQLQESGPGLVKPSETLSLTCKVSGFSFSSGYDMCWIRQPPGKGLEWIGCVVAGSVDITYYASWAKGRVTISVDSSKNQFSLKLSSVTAADTAVYYCARKDAASDAFNLWGQGTLVTVSSGGGGSGGGGSVVMTQSPSSLSASVGDRVTITCQASQIISSRSAWYQQKPGQPPKLLIYQASKLASGVPSRFSGSGSGTDFTLTISSLQPEDFATYYCQCTYIDSNFGAFGGGTKLTVLGGGGGSGGGGSGGGGSGGGGSEVQLVESGGGLVQPGGSLRLSCAASGFSFSSSYWICWVRQAPGKGLEWVGCVFTGDGTTYYASWAKGRFTISRDNSKNTVYLQMNSLRAEDTATYFCARPVSVYYYGMDLWGQGTLVTVSS
B2: PRO1679 (multispecific antibody)
chain: DIQMTQSPSSLSASVGDRVTITCRASQDVNTAVAWYQQKPGKAPKLLIYSASFLYSGVPSRFSGSRSGTDFTLTISSLQPEDFATYYCQQHYTTPPTFGCGTKLTVLGGGGGSQVQLQESGPGLVKPSETLSLTCKVSGFSFSSGYDMCWIRQPPGKGLEWIGCVVAGSVDITYYASWAKGRVTISVDSSKNQFSLKLSSVTAADTAVYYCARKDAYSDAFNLWGQGTLVTVSSGGGGSGGGGSGGGGSGGGGSIQMTQSPSSLSASVGDRVTITCQASQSINDYLAWYQQKPGKAPKLLIYKASTLASGVPSRFSGSGSGTDFTLTISSLQPEDFATYYCQAAYIITDIDNVFGTGTKVTVLGGGGGS[not shown - about 120 residues]GGGGSGGGGSVVMTQSPSSLSASVGDRVTITCQASQIISSRSAWYQQKPGQPPKLLIYQASKLASGVPSRFSGSGSGTDFTLTISSLQPEDFATYYCQCTYIDSNFGAFGGGTKLTVLGGGGGSGGGGSGGGGSGGGGSEVQLVESGGGLVQPGGSLRLSCAASGFSFSSSYWICWVRQAPGKGLEWVGCVFTGDGTTYYASWAKGRFTISRDNSKNTVYLQMNSLRAEDTATYFCARPVSVYYYGMDLWGQGTLVTVSS
B3: PRO1681 (multispecific antibody)
chain: DIQMTQSPSSLSASVGDRVTITCRASQDVNTAVAWYQQKPGKAPKLLIYSASFLYSGVPSRFSGSRSGTDFTLTISSLQPEDFATYYCQQHYTTPPTFGCGTKLTVLGGGGGSQVQLQESGPGLVKPSETLSLTCKVSGFSFSSGYDMCWIRQPPGKGLEWIGCVVAGSVDITYYASWAKGRVTISVDSSKNQFSLKLSSVTAADTAVYYCARKDAASDAFNLWGQGTLVTVSSGGGGSGGGGSGGGGSGGGGSIQMTQSPSSLSASVGDRVTITCQASQSINDYLAWYQQKPGKAPKLLIYKASTLASGVPSRFSGSGSGTDFTLTISSLQPEDFATYYCQAGYIITDIDNVFGTGTKVTVLGGGGGS[not shown - about 120 residues]GGGGSGGGGSVVMTQSPSSLSASVGDRVTITCQASQIISSRSAWYQQKPGQPPKLLIYQASKLASGVPSRFSGSGSGTDFTLTISSLQPEDFATYYCQCTYIDSNFGAFGGGTKLTVLGGGGGSGGGGSGGGGSGGGGSEVQLVESGGGLVQPGGSLRLSCAASGFSFSSSYWICWVRQAPGKGLEWVGCVFTGDGTTYYASWAKGRFTISRDNSKNTVYLQMNSLRAEDTATYFCARPVSVYYYGMDLWGQGTLVTVSS

Key:
human serum albumin = biological target: T1, human serum albumin (human, UniProt P02768); assay: SPR, immobilised HSA, pH 5.5
T1 construct: also called HSA; human SA

[1] = biological target: T2, human PD-L1 expressed on cells (CHO-PD-L1, HCC1954, HCC827) (human, UniProt Q9NZQ7); assay: flow cytometry with human SA, inhibition of PD-1 binding to HCC827 cells
T2 construct: whole, on cells; also called hPD-L1; PD-L1 expressing cells

[2] = biological target: T2, human PD-L1 expressed on cells …; assay: flow cytometry with human SA, inhibition of PD-1 binding to HCC1954 cells
[3] = biological target: T3, Fc-tagged human PD-L1 extracellular domain (SinoBiological, cat. 10084-H02H) (human, UniProt Q9NZQ7 part only); assay: SPR, captured Fc-PD-L1 ECD, steady state
T3 construct: extracellular domain; also called hPD-L1; not shown: Fc tag of the bought protein

Binder | koff (human serum albumin) [s⁻¹] | kon (human serum albumin) [M⁻¹ s⁻¹] | IC50 [1] [µg/mL] | IC50 [2] [µg/mL] | Kd (human serum albumin) [nM] | Kd [3] [nM]
B1 | 0.000732 | 188000 | 2100 | 1.15 |  | 
B2 | 0.000733 | 188000 | 119 | 0.652 | 3.89 | 122
B3 | 0.000737 | 191000 | 1520 | 2.01 | 3.85 | 
